B1: Caulobacter ParB omega fusion; a variant is named by its letters at X, in order, B8GW30 (parent)
chain: MESVVVGEPGMSEGRRGLGRGLSALLGEVDAAPAQAPGEQLGGSREAPIEILQRNPDQPRRTFREEDLEDLSNSIREKGVLQPILVRPSPDTAGEYQIVAGERAWRAAQRAGLKTVPIMVRELDDLAVLEIGIIENVQRADLNVLEEALSYKVLMEKFERTQENIAQTIGKSXSHVANXMRLLXLPDEVQSYLVSGELTAXHARAIAAAADPVALAKQIIEGGLSVRETEALARKAPNLSAGKSKGGRPPRVKDTDTQALESDLSSVLGLDVSIDHRGSTGTLTITYATLEQLDDLCNRLTRGI

The full ranking holds about 81,000 sequences; the median of “one-hybrid fitness for binding NBS DNA” is about -0.1, and the highest 2% start at about 0.36. Some of the results follow.

In this test the parent is B1. Description: one-hybrid fitness for binding NBS DNA (the Noc-binding site; scaled: cognate 1, non-cognate 0); higher = stronger binding. The settings on record: with NBS DNA site. In a few lines: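 The reporter was HIS3, with the binding site 19 bp from the promoter, in E. coli USO used for bacterial one-hybrid selection of Caulobacter ParB libraries with four specificity codons randomised. Growth was on M9 lacking histidine, with 0.1 mM IPTG and 5 mM 3-AT, for 48 hours at 37°C. Illumina sequencing covered plasmids before and after selection; three replicate libraries were pooled and variants with under 10 reads dropped. A fitness score is the log change in variant-to-wild-type read ratio, rescaled to the cognate and non-cognate references.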
On to PTYR, for which the “one-hybrid fitness for binding NBS DNA” value was at most 0.2.
As to CAAK, the “one-hybrid fitness for binding NBS DNA” value is at most 0.2.
The same measure for KSVR: at most 0.2; for TLVS: at most 0.2.
Take LNRW: the “one-hybrid fitness for binding NBS DNA” value was at most 0.2.
As to MVTA, the “one-hybrid fitness for binding NBS DNA” value was at most 0.2.
The same measure for GQTY: at most 0.2; for KKGT: 0.209.
The value for NCNN was at most 0.2.
On to HEIT, for which the “one-hybrid fitness for binding NBS DNA” value is at most 0.2.
Turning to LMLG, the “one-hybrid fitness for binding NBS DNA” value was at most 0.2.
The same measure for ATIK: at most 0.2.
The value for HQNC was at most 0.2.
The value for QIHK was at most 0.2; that for RTEP was at most 0.2.
On to GKCC, for which the “one-hybrid fitness for binding NBS DNA” value is at most 0.2.
The value for MTAP was at most 0.2.
The same measure for HNRF: at most 0.2; for ITTG: at most 0.2; for PLFS: at most 0.2.
The value for RLIF was at most 0.2; that for DTTW was at most 0.2; that for LECG was at most 0.2.
As for FQAY, the “one-hybrid fitness for binding NBS DNA” value was at most 0.2.
The value for NNSY was at most 0.2.
RAGR: the “one-hybrid fitness for binding NBS DNA” value is 0.471.
The same measure for ALDC: at most 0.2; for CLHE: at most 0.2.
The value for VAPN was at most 0.2; that for YKDG was at most 0.2; that for MTLS was at most 0.2.
The value for QPMY was at most 0.2; that for WRFG was at most 0.2.
For SATE, the “one-hybrid fitness for binding NBS DNA” value was at most 0.2.
The same measure for QLDT: 0.249; for ARYV: at most 0.2.
For the variant DCKC, the “one-hybrid fitness for binding NBS DNA” value is at most 0.2.
The value for CMSN was at most 0.2; that for LLTK was at most 0.2.
The same measure for QTDS: 0.331; for RAQF: at most 0.2.
The value for NLWG was at most 0.2.
Regarding EPLR, the “one-hybrid fitness for binding NBS DNA” value is at most 0.2.
The value for CDPL was at most 0.2.
The same measure for MVWT: at most 0.2; for VKCG: at most 0.2; for FGNG: at most 0.2.
For the variant RYHW, the “one-hybrid fitness for binding NBS DNA” value is at most 0.2.
The same measure for RAER: at most 0.2; for SDRC: at most 0.2.
Regarding PNPM, the “one-hybrid fitness for binding NBS DNA” value is at most 0.2.
On to IWGC, for which the “one-hybrid fitness for binding NBS DNA” value is at most 0.2.
The value for SNAC was at most 0.2.
In the case of RLTA, the “one-hybrid fitness for binding NBS DNA” value is at most 0.2.
With WRKA, the “one-hybrid fitness for binding NBS DNA” value is at most 0.2.
The same measure for PDPL: at most 0.2; for RKAR: 0.597; for PRCM: at most 0.2.
The same measure for AGMI: at most 0.2; for GMHT: at most 0.2.
The same measure for ADTS: at most 0.2; for QFMR: at most 0.2.
As to RPLN, the “one-hybrid fitness for binding NBS DNA” value was at most 0.2.
Consider QQTQ, for which the “one-hybrid fitness for binding NBS DNA” value is at most 0.2.
For the variant DTAG, the “one-hybrid fitness for binding NBS DNA” value was at most 0.2.
The value for RRCW was at most 0.2; that for CRHF was at most 0.2; that for GAGG was at most 0.2.
The value for LFWG was at most 0.2; that for QMSF was at most 0.2.
The same measure for CYSF: at most 0.2; for HKKS: at most 0.2.
As to LDLE, the “one-hybrid fitness for binding NBS DNA” value is at most 0.2.
The value for QRAC was 0.391.
The value for TGHH was at most 0.2.
In the case of PYSM, the “one-hybrid fitness for binding NBS DNA” value is at most 0.2.
The same measure for MNCF: at most 0.2; for TQPA: at most 0.2; for MERT: at most 0.2.
Regarding DLVV, the “one-hybrid fitness for binding NBS DNA” value was at most 0.2.
The value for LAAN was at most 0.2; that for STFP was at most 0.2; that for RHNQ was at most 0.2.
The same measure for RKPW: at most 0.2; for FEDV: at most 0.2.
The same measure for TPGW: at most 0.2; for QGSQ: at most 0.2.
Regarding RAEG, the “one-hybrid fitness for binding NBS DNA” value is at most 0.2.
The same measure for KRLS: 0.363; for PMCC: at most 0.2.
On to RDHR, for which the “one-hybrid fitness for binding NBS DNA” value was at most 0.2.
The same measure for QIKM: 0.249.
The value for FQSR was at most 0.2.
The same measure for YTTR: at most 0.2; for AWNG: at most 0.2.
In the case of QQPC, the “one-hybrid fitness for binding NBS DNA” value was at most 0.2.
The same measure for LQVG: at most 0.2; for VPMT: at most 0.2; for PCGL: at most 0.2.
The same measure for KTII: at most 0.2; for RCDA: at most 0.2.
The same measure for TVYT: at most 0.2; for ARSV: at most 0.2.
Regarding SVLM, the “one-hybrid fitness for binding NBS DNA” value was at most 0.2.
The same measure for HFAL: at most 0.2.
For QPEA, the “one-hybrid fitness for binding NBS DNA” value is at most 0.2.
The same measure for LPKP: at most 0.2.
As for HMPC, the “one-hybrid fitness for binding NBS DNA” value was at most 0.2.
The same measure for QVGC: at most 0.2; for VISR: at most 0.2.
The value for PRVH was at most 0.2; that for FKRS was at most 0.2.
The value for FSGD was at most 0.2.
As to HHNQ, the “one-hybrid fitness for binding NBS DNA” value was at most 0.2.
The value for LEAF was at most 0.2.
In the case of EWDR, the “one-hybrid fitness for binding NBS DNA” value was at most 0.2.
The value for WDLY was at most 0.2; that for RIMP was at most 0.2; that for HGVY was at most 0.2.
Turning to SHTG, the “one-hybrid fitness for binding NBS DNA” value was at most 0.2.
Take PFRP: the “one-hybrid fitness for binding NBS DNA” value was at most 0.2.
As to SHPQ, the “one-hybrid fitness for binding NBS DNA” value is at most 0.2.
The same measure for LIAG: at most 0.2; for PMES: at most 0.2.
The value for NREN was at most 0.2; that for ERAV was at most 0.2; that for AEHK was at most 0.2.
The same measure for TAHA: at most 0.2; for MWNV: at most 0.2.
Regarding PTSV, the “one-hybrid fitness for binding NBS DNA” value was at most 0.2.
The same measure for CHYS: at most 0.2; for TPPK: at most 0.2.
The same measure for VCTL: at most 0.2; for RLML: at most 0.2; for CGRS: at most 0.2.
The value for PSQD was at most 0.2; that for PWLG was at most 0.2; that for GTNM was at most 0.2.
Turning to PVRQ, the “one-hybrid fitness for binding NBS DNA” value is at most 0.2.
The same measure for RFCR: at most 0.2; for MCPF: at most 0.2; for DELS: at most 0.2.
The same measure for TINV: at most 0.2; for MPAW: at most 0.2; for FPHR: at most 0.2.
The same measure for PQQS: at most 0.2; for RPPD: at most 0.2; for KMGR: at most 0.2.
As to SNHT, the “one-hybrid fitness for binding NBS DNA” value was at most 0.2.
The value for NCNQ was at most 0.2; that for RGMA was at most 0.2.
The same measure for GQSW: at most 0.2; for SSKM: at most 0.2; for SPPE: at most 0.2.
The same measure for GHPE: at most 0.2; for LNRF: at most 0.2.
As for EFSC, the “one-hybrid fitness for binding NBS DNA” value is at most 0.2.
The same measure for HEEL: at most 0.2.
YRYE: the “one-hybrid fitness for binding NBS DNA” value was at most 0.2.
The same measure for DTQL: at most 0.2; for WPFG: at most 0.2; for EVSG: at most 0.2.
The value for QSVN was at most 0.2.
As for ACES, the “one-hybrid fitness for binding NBS DNA” value is at most 0.2.
The value for PEYG was at most 0.2.
The value for KEIR was at most 0.2; that for VRSI was at most 0.2; that for DINS was at most 0.2.
The same measure for LSTL: at most 0.2; for CQPP: at most 0.2; for PDYW: at most 0.2.
Regarding TLGY, the “one-hybrid fitness for binding NBS DNA” value is at most 0.2.
The same measure for VTSC: at most 0.2; for PRMT: at most 0.2; for LQQR: at most 0.2.
The value for PDHL was at most 0.2; that for ASSL was at most 0.2; that for TQAS was at most 0.2.
For SEHI, the “one-hybrid fitness for binding NBS DNA” value is at most 0.2.
The value for CHDS was at most 0.2; that for QMQW was at most 0.2.
The same measure for YNNT: at most 0.2; for YFST: at most 0.2; for SLGS: at most 0.2.
The same measure for HNFR: at most 0.2; for VASP: at most 0.2.
REQE: the “one-hybrid fitness for binding NBS DNA” value was at most 0.2.
The value for SGSQ was at most 0.2; that for VEMG was at most 0.2; that for LKGS was at most 0.2.
The same measure for THAV: at most 0.2; for TFYS: at most 0.2.
The same measure for TGYT: at most 0.2.
VAEA: the “one-hybrid fitness for binding NBS DNA” value was at most 0.2.
Take CTYV: the “one-hybrid fitness for binding NBS DNA” value is at most 0.2.

(Values after a collection of fitness landscapes (doi:10.1016/j.celrep.2020.107928).)
